The text below walks through data of ChEMBL document CHEMBL4888484, “Replenishing the malaria drug discovery pipeline: Screening and hit evaluation of the MMV Hit Generation Library 1 (HGL1) against asexual blood stage Plasmodium falciparum ,using a nano luciferase reporter read-out” (2022).

Hit rate of the full screen: of about 150,000 compounds, about 540 (0.36%) showed an effect of 50% or more. Some of the results follow.

In this assay the test system is Plasmodium falciparum. Briefly: Primary screen in NF54 nanoGlo assay, in single point, at 2uM, 72h; a lower Z score goes with more inhibition. To be noted: timepoint 72 hour. It is filed as functional, Erythrocyte.
`COc1c(C)ncnc1N1CCN(CCc2cccs2)CC1`: the “% Inhibition” value is given as -3% and the Z score stood at 0.48.

With `CCCc1ncncc1-c1nc(C2(c3ccccc3)CC2)nn1CC(=O)O`, the “% Inhibition” value was -10% and the Z score worked out at 0.97.

With `CCC[C@H]1CN(C(=O)CCc2ccsc2)C[C@@H]1N(C)C`, the “% Inhibition” value is -4% and the Z score worked out at 0.71.

With `O=S(=O)(c1cccs1)N1CC[C@H](n2ccnn2)C1`, the “% Inhibition” value is -9% and the Z score is 1.54.

For the molecule `CC[C@H](C)C(=O)NOCc1ccccc1`, the “% Inhibition” value is -9% and the Z score was 1.67.

Turning to `COc1ccc([C@@H]2Cn3nnc(C(=O)N4CCC(C(=O)NCCc5ccccc5)CC4)c3CO2)cc1`, the “% Inhibition” value is given as -16% and the Z score was 1.51.

Regarding `O=C(NCc1cccnc1N1CCOCC1)[C@H]1CCCN(c2cc(-n3cncn3)ncn2)C1`, the “% Inhibition” value came out at 20% and the Z score is listed as -2.48.

In the case of `CC(=O)N1CCC[C@H](c2nc3c(s2)CCC3(C)C)C1`, the “% Inhibition” value turned out to be 12% and the Z score is recorded as -1.52.

Take `Cc1cccc(C(=O)N(C)CC2CCCCC2)n1`: the “% Inhibition” value was -2% and the Z score was 0.3.

On to `O=C(Cc1cccc2cnccc12)NC1CC(C2CCCCC2)C1` (centres undefined), for which the “% Inhibition” value was -10% and the Z score is listed as 1.31.

For the molecule `COc1cc2ccc1Oc1cccc(c1)CO[C@H]1CN(C(=O)c3ncoc3C)C[C@@H]1NC(=O)CN(C1CC1)C(=O)CC2`, the “% Inhibition” value is reported as -11% and the Z score was determined as 2.12.

`c1cncc(CN2CCC(N3CC4(CCCCC4)[C@H]3c3ccncc3)CC2)c1`: the “% Inhibition” value is recorded as -8% and the Z score came to 1.23.

Regarding `Cc1ccccc1C(C)Cc1nnc([C@H]2CCO[C@@H]2c2ccccc2)o1` (some centres undefined), the “% Inhibition” value was -6% and the Z score is on record as 1.05.

On to `CC(C)(NS(=O)(=O)CCNC(=O)OCc1ccccc1)C1CC1`, for which the “% Inhibition” value is on record as -7% and the Z score is recorded as 0.92.

With `C[C@@H](C1CCN(c2ncc(Cl)cc2F)CC1)N1CCCC1`, the “% Inhibition” value was -10% and the Z score turned out to be 1.68.

On to `O=C(c1ccc2ccccc2c1)N1CCCN(C[C@H]2CN(C(=O)c3cccs3)CCO2)CC1`, for which the “% Inhibition” value is -19% and the Z score was 1.84.

For the molecule `CC(=O)N1CCC[C@H]1C(=O)N1CC=C(c2c[nH]c3ccccc23)CC1`, the “% Inhibition” value stood at 11% and the Z score is reported as -1.56.

Take `Cc1c(Cl)cccc1NC(=O)CN(C)S(=O)(=O)c1ccc2c(c1)C[C@H](C)N2C(=O)C1CCC1`: the “% Inhibition” value is given as -4% and the Z score was determined as 0.68.

In the case of `CCC(CC)c1nnc(NC(=O)c2ccc(CNC(=O)c3cccs3)cc2)s1`, the “% Inhibition” value was found to be 13% and the Z score is recorded as -2.38.

Regarding `O=C(COc1ccc(F)cc1)N1CC[C@H](N2C(=O)COC2=O)C1`, the “% Inhibition” value was -4% and the Z score came out at 0.64.

Regarding `CCOc1ccccc1NC(=O)c1cc2nccc(-c3ccc(OC)c(OC)c3)n2n1`, the “% Inhibition” value is -11% and the Z score is on record as 1.11.

On to `COc1cnc(NC(=O)NCCc2nc3c(s2)CCC3)s1`, for which the “% Inhibition” value is on record as -6% and the Z score worked out at 1.16.

As for `N#Cc1c(-c2ccc(Cl)cc2)ccn2nc(-c3c(F)cccc3F)nc12`, the “% Inhibition” value is given as -3% and the Z score is recorded as 0.36.

On to `CN1C[C@@H](C(=O)N2CCc3c2cccc3C(F)(F)F)CC1=O`, for which the “% Inhibition” value is -2% and the Z score worked out at 0.2.

As to `Cc1ccc(-n2nnc(-c3nc(-c4ccc5c(c4)OCO5)cs3)c2N)cc1F`, the “% Inhibition” value is on record as 16% and the Z score was -1.84.

With `Cc1nnc([C@H]2CN(C(=O)C(C)C)CC23CCN(C(=O)COc2ccccc2)CC3)o1`, the “% Inhibition” value is listed as -5% and the Z score worked out at 0.93.

As to `COc1cc2c(-c3ccccc3)c(C)oc2cc1CN1CCC(C)CC1`, the “% Inhibition” value was 1% and the Z score was -0.19.

Consider `CC1CCC(N(Cc2nnc(C(C)C)o2)C[C@H]2CCCO2)CC1` (some centres undefined), for which the “% Inhibition” value was -10% and the Z score worked out at 0.93.

With `Cn1c(CNS(=O)(=O)CCC2CCOCC2)nnc1C1CC1`, the “% Inhibition” value is reported as -14% and the Z score is on record as 2.31.

As for `Cc1cc(C(=O)Nc2ccc3c(c2)OCCCO3)c(C)o1`, the “% Inhibition” value is on record as -7% and the Z score is listed as 0.99.

For `COCCc1nnc(NC(=O)c2cc(C)on2)o1`, the “% Inhibition” value is -1% and the Z score is reported as 0.11.

For `COc1ccc2nc(-c3ccc(NS(=O)(=O)c4c(C)nn(C)c4C)cc3)sc2c1`, the “% Inhibition” value was -4% and the Z score is recorded as 0.43.

`OC1(CN[C@H]2CCc3cccnc3CC2)CCC(F)(F)CC1`: the “% Inhibition” value is recorded as -9% and the Z score is 1.63.

As to `COCCN1C[C@@H](Cc2cccc3cc[nH]c23)CC1=O`, the “% Inhibition” value is listed as -5% and the Z score was determined as 0.83.

In the case of `CC(C)CC1(C(=O)O)NC(c2ccccc2O)C2C(=O)N(Cc3ccccc3)C(=O)C21` (centres undefined), the “% Inhibition” value was -10% and the Z score came out at 1.35.

Take `Cc1cc(-c2nc(-c3cccs3)no2)n(C)n1`: the “% Inhibition” value was -12% and the Z score is on record as 1.11.

With `Cc1ccccc1NC(=O)C1CCC(CNS(=O)(=O)c2ccc3c(c2)C(C)(C)C(=O)N3C)CC1` (centres undefined), the “% Inhibition” value was -18% and the Z score came out at 1.78.

Regarding `Cc1cc(NC(=O)c2cnn(C)c2)cnc1N1CCCC[C@@H]1C`, the “% Inhibition” value was -10% and the Z score came to 1.31.

As for `COCc1c(C(=O)NCC(C)(C)N2CCOCC2)cnn1-c1ncc(C)c(-c2cccs2)n1`, the “% Inhibition” value is -10% and the Z score is reported as 1.52.

As for `CCCCCS(=O)(=O)N1CCC[C@H]1c1cnn(C)c1C`, the “% Inhibition” value was -15% and the Z score was determined as 2.23.

Regarding `NC(=O)CN1CCOc2c1ccc(F)c2F`, the “% Inhibition” value is reported as -5% and the Z score was 0.77.

Take `Cc1noc(C)c1CO[C@H]1CCOC[C@H]1NS(=O)(=O)N1CCCCC1`: the “% Inhibition” value is -16% and the Z score is on record as 1.72.
